Results reported in the supplement of paper PMC10126150.
Values marked as one replicate rest on one cluster of the flow cell; about a third of the high ones do not repeat.

Test system: ATP
Assay: switch fluorescence ratio, 500 uM ATP over buffer (Cy3 cluster intensity, sum of 5 cycles each) (fold (ratio)); higher = stronger signal-on switching upon ATP binding; sequences stand for … in TCGTCGGCAGCGTCAGATGTGTATAAGAGACAGTTTTTTTTTTTTTTTTTTTTTTTTT…TC
Conditions: aptamer strand: ATP DNA aptamer (quencher-CACCTGGGGGAGTATTGCGGAGGAAGG + anchor), 100 nM annealed; ATP concentration: 500 uM; one replicate
Summary of the method: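 Five buffer/ATP imaging cycles were run on Cy3-labelled switching-strand clusters on a modified Illumina MiSeq flow-cell, with NaOH stripping and re-annealing between cycles. In each cycle, clusters annealed to 100 nM quencher-labelled ATP aptamer were imaged in selection buffer, then after 15 min with 500 uM ATP at 22 °C. Per cluster, the fluorescence ratio is summed target-cycle over summed buffer-cycle Cy3 intensity, averaged per switch-domain sequence. Only clusters within 100-1000 RFU were kept.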
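Also: ATP exposure 15 min at 22 °C before imaging.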

Sequence	switch fluorescence ratio
AATTACAT	1.01
GCTCCCATTA	2.27
TTTTGCAGGC	1.15
CCGCGTCGGC	1.54
TGGCAGAATT	0.993
GGATCAACTC	1.02
TATTGCTTAA	0.981
GGCGACCCCA	1.4
TCTAGTTATA	1
AAGACCGATT	0.971
AAGTCCTTTG	1.01
CAAGGGGATA	0.989
AAGGTAATAG	1.08
TGGATGTTC	0.96
CTTCCAAGCT	2.65
ACAGTCTGTC	0.899
TCGATTACGT	1.02
GAGTCGTTTT	1.01
ACCTGTTAGC	1.01
CTGGATCAAC	1.09
GGAGGTATCG	1.08
GACGCGAGAT	4.5
TTATCAGAGT	1.02
CCAATTCCCA	1.01
TCCTGTGTCG	0.946
GATTTGGCGC	0.972

Sequence	switch fluorescence ratio
TCGGGCTCCC	1.09
GTGCTGGACA	0.96
TTAGCTTCGG	1.04
ACCTAATGTA	1.04
TTTTTATGT	1.02
AGATATTCTG	0.999
TTTTCTCTAA	0.98
TAATCCCGTT	0.958
TTTCGTACTA	0.996
GAAACTAGGT	1.03
CGTGAGCTCT	1.01
CGAATCCCTA	0.966
GACTTCTCTG	1.02
TGGGGAGTCT	1.05
CTCAGCGCAC	3.08
AGCCCGGGGG	1.1
ATGCTAAATT	1.03
AAGATGCCTG	1.04
AGTCGTTGTG	1
ATAGGTAGGA	0.98
GTTTACTGCA	1.01
CCGTGGGCGA	1.35
GAGGCAAAGG	1.23
ATACCGTCCC	1.32
GATCAAGGAA	0.95
CGCAGTTTGG	1.03

Sequence	switch fluorescence ratio
ATCGCTCAAT	1.01
CGATGGCTAT	1.09
ATAATCCTTC	1.19
GGAGGTATTG	0.969
ATTTTAATT	1.01
CTTGCCGCAG	2.44
TACTCATGTA	0.979
CAAGGAGTCA	0.995
CACTATCGAC	1.08
CAGCCCAAGT	0.991
CTCAGATTGA	0.951
TTGCGCTCGA	1.02
GTCATTTGTG	1.01
ATTAAACCTA	1.06
CCCCTCATGG	1.61
CGTAGGCAGA	1.02
ACGGGCGCGG	0.946
CCTTGAAGTA	1
AATTGGCCGC	1.03
AATAGATCTA	0.985
TCAGTTAACC	1.03
GCGTTTATAG	0.995
TAACGCTCGC	1.13
CCTAGGGT	1.11
CTCACCACCG	1.17
AGACTGTTG	0.949

Sequence	switch fluorescence ratio
TTTAACCTTG	1.04
TATGTTTG	0.991
ACCAAGTTCT	1.01
CCGGCCAAAT	1.33
CATCAAATGT	0.99
AACCGTGTTG	0.986
TACTAATTA	1.06
AGACAAACGT	1.32
ACCTCACTCC	1.84
AATTAGGCC	1
CCGAGAATTG	1.08
ACGGCTGTAG	1
TCAGTGGTTT	1.01
TCTTCGATCG	0.977
AGCGAAAGTT	0.979
GGATCCTACT	0.999
CACTAAGCGG	1.03
ATACTTGAAA	0.977
CCGTGTAATT	1.28
TTTGACTAG	0.955
ACTAGATCTC	0.953
GTTCCGGGCC	1.05
TTAGTACCGA	1.07
AATAGTGTG	0.994
AGTTCGCTT	1.02
TAACCTTTTG	1.06

Sequence	switch fluorescence ratio
TTATGAATGT	0.956
ATGGTTTAAA	0.97
CTGGTACTC	1.12
TTCAGGGCAG	0.993
CCTTTCCCGT	1.93
TCAGCTATGG	1.08
ACGTCTATTC	1.12
CGACACGTCA	1.13
TTTAACCAAC	1.09
CCGTGTGGGG	1
AATATGTTTC	1
GTTACGTCTC	0.979
CTGATTTCGA	0.965
AGACCATCAC	1.11
TGTCGTTTAG	1.02
GAGTATTAAA	0.959
GTCAGTGTT	1
GCATATAGCT	0.997
GCCCGCAGGT	1.42
TTCTCAGGGT	0.967
CGCTTTTGAC	1.51
ACGGAGACAA	6.58
TGAGAGATAG	0.986
GCGTATTCCA	0.976
CTACTTCTT	0.969
CTGCGAGTAT	1.03

Sequence	switch fluorescence ratio
TTCCCGGGCG	1.06
GTGAGGCAGA	1.09
AGTAAGTGTT	0.998
TTCAGACTAA	0.995
TCTGATCGCT	1.69
GTACAACCAG	1.05
AGGCGGCAAC	1.06
GATCCGTGTT	1.02
TGCAAGATGG	1.08
GTTCTTTGCC	1.01
AATCAGCATG	1.03
GTATTTTGGT	0.954
CTGATCGCGT	1.16
AACGGGCAAG	0.993
TAGCGAGGGA	1
TAGTATGCGG	0.97
ATGACCTGTG	0.992
CTTACTGAGG	1.03
GCAGTAATGC	1.79
CCCTTTTCTT	1.02
ATCCGAGCTG	1.23
ATTTTCCACG	1.46
TGTCCATAGG	1
AGAATCGGGG	1.06
TGTGGTCGTA	0.989
ATAGGATAT	0.968

Sequence	switch fluorescence ratio
TTGCAGCACT	1.11
TGGAGTAG	0.997
CAGCATATCT	1.53
TTGATATGGC	0.953
AGCTAGCCTC	1.02
ATGCGATGGT	1.01
AACCTGCGAT	1.24
ACCTAGTAAT	1.06
TGCCCGACCG	1.07
ATAGCGTCAG	1.03
CATCAATACT	3.86
TTTCGTA	0.925
ACCAAGGACG	1.03
GAGACGCCTA	1.06
GTTAGTCAGC	0.965
GCAGATGCCA	0.988
TGGGCGGGCA	1.04
GACTAGGGCA	0.982
TTACACATGT	0.987
AGATGGAAAG	0.981
CATTGCATTG	1.02
GCGGGCCCGG	1
GGTAAAGCCC	1.11
AAAGGAAGGA	0.958
TGACGCTTTT	1.06
GTTACCGATC	1.11

Sequence	switch fluorescence ratio
GGATACGTCC	1.03
CGCTACGTCC	1.19
TTGCGCAACA	1.06
GGCATAGTGT	0.989
GGGTTACTTT	1.01
CCAGTATCTA	0.985
TAGAGCTGGT	0.977
TTCGTCGCTT	1.12
CTACACTGCG	1.07
TTTTACGATT	1.02
TTATGGGGTC	0.961
AAAGGCGCTA	0.978
TTCAACAAGT	0.99
GTGCATAACG	0.95
TCAGAGGTAA	1.04
TGGTAACCCC	1.11
CCAATAGGCT	1.01
AAAACTAGGT	1.04
GAGCGCCTTC	1.03
